# Results: the supplement of paper PMC8728848
# The other results are listed elsewhere or left out.
# How the values were obtained:
# Experiment in all cases: glycan array binding signal (z-score within array); higher = stronger binding
# Conditions in all cases: glycan notation: IUPAC condensed, linker removed; mutation: D22R
# [1] = biological target: Gal(b1-4)GalNAc(b1-3)[Fuc(a1-2)]Gal(b1-4)GlcNAc
# Outline: (§1)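 The Consortium for Functional Glycomics database supplied 3228 glycan arrays, of which those lacking an available protein sequence were dropped. The binding signal, a within-array Z-score, was averaged across arrays of the same protein sequence and across linkers. Negative scores can be read as non-binding.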
# Gal(b1-4)Glc = biological target: Gal(b1-4)Glc
# Outline: as §1
# Gal(b1-4)Glc6S = biological target: Gal(b1-4)Glc6S
# Outline: as §1
# Gal(b1-4)GlcNAc = biological target: Gal(b1-4)GlcNAc
# Outline: as §1
# [2] = biological target: Gal(b1-4)GlcNAc(a1-6)Gal(b1-4)GlcNAc
# Outline: as §1
# Gal(b1-4)GlcNAc(b1-2)Man = biological target: Gal(b1-4)GlcNAc(b1-2)Man
# Outline: as §1
# [3] = biological target: Gal(b1-4)GlcNAc(b1-2)Man(a1-3)Man(b1-4)GlcNAc(b1-4)GlcNAc
# Outline: as §1
# [4] = biological target: Gal(b1-4)GlcNAc(b1-2)Man(a1-3)[Gal(b1-4)GlcNAc(b1-2)Man(a1-6)]Man(b1-4)GlcNAc(b1-4)GlcNAc
# Outline: as §1
# [5] = biological target: Gal(b1-4)GlcNAc(b1-2)Man(a1-3)[Gal(b1-4)GlcNAc(b1-2)Man(a1-6)]Man(b1-4)GlcNAc(b1-4)[Fuc(a1-6)]GlcNAc
# Outline: as §1
# [6] = biological target: Gal(b1-4)GlcNAc(b1-2)Man(a1-3)[Gal(b1-4)GlcNAc(b1-2)Man(a1-6)][Gal(b1-4)GlcNAc(b1-4)]Man(b1-4)GlcNAc(b1-4)[Fuc(a1-6)]GlcNAc
# Outline: as §1
# [7] = biological target: Gal(b1-4)GlcNAc(b1-2)Man(a1-3)[Gal(b1-4)GlcNAc(b1-2)Man(a1-6)][GlcNAc(b1-4)]Man(b1-4)GlcNAc(b1-4)[Fuc(a1-6)]GlcNAc
# Outline: as §1
# [8] = biological target: Gal(b1-4)GlcNAc(b1-2)Man(a1-3)[GlcNAc(b1-2)Man(a1-6)]Man(b1-4)GlcNAc(b1-4)GlcNAc
# Outline: as §1
# [9] = biological target: Gal(b1-4)GlcNAc(b1-2)Man(a1-3)[GlcNAc(b1-4)][Gal(b1-4)GlcNAc(b1-2)Man(a1-6)]Man(b1-4)GlcNAc(b1-4)GlcNAc
# Outline: as §1
# [10] = biological target: Gal(b1-4)GlcNAc(b1-2)Man(a1-3)[Man(a1-6)]Man(b1-4)GlcNAc(b1-4)GlcNAc
# Outline: as §1
# [11] = biological target: Gal(b1-4)GlcNAc(b1-2)Man(a1-6)Man(b1-4)GlcNAc(b1-4)GlcNAc
# Outline: as §1
# [12] = biological target: Gal(b1-4)GlcNAc(b1-2)Man(a1-6)[GlcNAc(b1-2)Man(a1-3)]Man(b1-4)GlcNAc(b1-4)GlcNAc
# Outline: as §1
# [13] = biological target: Gal(b1-4)GlcNAc(b1-2)Man(a1-6)[Man(a1-3)]Man(b1-4)GlcNAc(b1-4)GlcNAc
# Outline: as §1
# [14] = biological target: Gal(b1-4)GlcNAc(b1-2)[Gal(b1-4)GlcNAc(b1-4)]Man(a1-3)[Gal(b1-4)GlcNAc(b1-2)Man(a1-6)]Man(b1-4)GlcNAc(b1-4)GlcNAc
# Outline: as §1
# [15] = biological target: Gal(b1-4)GlcNAc(b1-2)[Gal(b1-4)GlcNAc(b1-4)]Man(a1-3)[Gal(b1-4)GlcNAc(b1-2)[Gal(b1-4)GlcNAc(b1-6)]Man(a1-6)]Man(b1-4)GlcNAc(b1-4)GlcNAc
# Outline: as §1
# [16] = biological target: Gal(b1-4)GlcNAc(b1-2)[Gal(b1-4)GlcNAc(b1-4)]Man(a1-3)[GlcNAc(b1-4)][Gal(b1-4)GlcNAc(b1-2)Man(a1-6)]Man(b1-4)GlcNAc(b1-4)GlcNAc
# Outline: as §1
# [17] = biological target: Gal(b1-4)GlcNAc(b1-2)[Gal(b1-4)GlcNAc(b1-4)]Man(a1-3)[GlcNAc(b1-4)][Gal(b1-4)GlcNAc(b1-2)[Gal(b1-4)GlcNAc(b1-6)]Man(a1-6)]Man(b1-4)GlcNAc(b1-4)GlcNAc
# Outline: as §1
# [18] = biological target: Gal(b1-4)GlcNAc(b1-2)[Gal(b1-4)GlcNAc(b1-6)]Man(a1-6)[Gal(b1-4)GlcNAc(b1-2)Man(a1-3)]Man(b1-4)GlcNAc(b1-4)GlcNAc
# Outline: as §1
binder,measurement,setting,value
MpL2 (Macrolepiota procera) (protein) MSTQVSSGQTYKITNVKAGTVIRLSGEDNKSIIGYPYHSGKNQQWTFNWTGKAWTLRSASSGSYLGIEGTPADGTRLVAVNDPFEWHIWRDEANENAFRIFVPFTNYNLDLSGYGDTTPGTPVQLWWTWEGLHQTWTIDRP,glycan array binding signal (z-score),[1],-0.145
same,glycan array binding signal (z-score),Gal(b1-4)Glc,-0.098
same,glycan array binding signal (z-score),Gal(b1-4)Glc6S,0.109
same,glycan array binding signal (z-score),Gal(b1-4)GlcNAc,-0.208
same,glycan array binding signal (z-score),[2],4.13
same,glycan array binding signal (z-score),Gal(b1-4)GlcNAc(b1-2)Man,0.161
same,glycan array binding signal (z-score),[3],-0.218
same,glycan array binding signal (z-score),[4],-0.47
same,glycan array binding signal (z-score),[5],0.366
same,glycan array binding signal (z-score),[6],-1.56
same,glycan array binding signal (z-score),[7],-0.365
same,glycan array binding signal (z-score),[8],-0.978
same,glycan array binding signal (z-score),[9],-0.408
same,glycan array binding signal (z-score),[10],-0.207
same,glycan array binding signal (z-score),[11],-0.109
same,glycan array binding signal (z-score),[12],-0.42
same,glycan array binding signal (z-score),[13],0.094
same,glycan array binding signal (z-score),[14],-0.492
same,glycan array binding signal (z-score),[15],-0.046
same,glycan array binding signal (z-score),[16],-0.047
same,glycan array binding signal (z-score),[17],-0.687
same,glycan array binding signal (z-score),[18],-0.672
